In all, about 310,000 compounds went through this assay and about 14,000 (4.5%) showed an effect of 50% or more. The effect is printed as a negative number. The list shows a part of the results.
Each compound was assayed against human ether-à-go-go-related gene (hERG) potassium channel (human, UniProt Q12809) (assay: primary screen, population patch clamp on CHO cells stably expressing hERG).
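Note: peak tail current of the secondary pulse compared with the same well before compound.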

Sequence of human ether-à-go-go-related gene (hERG) potassium channel (Q12809 whole entry, looked up): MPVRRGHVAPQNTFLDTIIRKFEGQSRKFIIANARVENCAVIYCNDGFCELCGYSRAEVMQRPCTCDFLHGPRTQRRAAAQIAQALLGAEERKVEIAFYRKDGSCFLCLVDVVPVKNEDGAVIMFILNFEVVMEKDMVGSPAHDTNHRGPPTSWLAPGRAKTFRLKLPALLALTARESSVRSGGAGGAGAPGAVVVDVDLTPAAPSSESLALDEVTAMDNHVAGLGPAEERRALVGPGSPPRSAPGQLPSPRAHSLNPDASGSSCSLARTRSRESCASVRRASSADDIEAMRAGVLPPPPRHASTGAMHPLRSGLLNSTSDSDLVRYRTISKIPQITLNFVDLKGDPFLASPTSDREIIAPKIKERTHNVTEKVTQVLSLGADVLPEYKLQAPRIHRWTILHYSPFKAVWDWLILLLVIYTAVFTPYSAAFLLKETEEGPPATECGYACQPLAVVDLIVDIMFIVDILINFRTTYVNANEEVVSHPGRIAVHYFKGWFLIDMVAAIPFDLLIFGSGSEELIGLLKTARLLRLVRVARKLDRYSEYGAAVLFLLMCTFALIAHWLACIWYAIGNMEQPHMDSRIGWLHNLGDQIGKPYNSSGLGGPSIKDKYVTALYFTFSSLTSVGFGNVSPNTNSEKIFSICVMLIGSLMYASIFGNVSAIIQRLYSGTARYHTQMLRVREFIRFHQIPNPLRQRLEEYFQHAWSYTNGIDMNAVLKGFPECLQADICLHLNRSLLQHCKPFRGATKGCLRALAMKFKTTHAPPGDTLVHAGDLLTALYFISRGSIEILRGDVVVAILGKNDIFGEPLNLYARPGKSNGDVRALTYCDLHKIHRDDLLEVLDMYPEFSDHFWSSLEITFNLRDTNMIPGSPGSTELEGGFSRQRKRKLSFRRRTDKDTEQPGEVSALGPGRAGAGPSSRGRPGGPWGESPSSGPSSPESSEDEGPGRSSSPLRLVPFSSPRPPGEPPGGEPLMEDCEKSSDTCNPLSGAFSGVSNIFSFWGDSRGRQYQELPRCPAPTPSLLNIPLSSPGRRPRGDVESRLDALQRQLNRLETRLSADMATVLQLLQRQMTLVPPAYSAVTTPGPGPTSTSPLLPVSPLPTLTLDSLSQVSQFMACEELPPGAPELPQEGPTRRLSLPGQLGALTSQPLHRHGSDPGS

SMILES | hERG current change (%, negative = inhibition) at 10uM
C[C@H](NC(=O)c1nc[nH]c1C(=O)NCc1ccccc1)C(=O)OCc1ccccc1 | 3.6%
COc1ccc(C(C)(C)C)cc1NC(=O)c1ccc2c(c1)SC1=NS(=O)(=O)CCN12 | 14.3%
CCN(CC)CC.CCc1ccc(-n2c(=S)sc3c(=O)n(-c4ccccc4OC)c(=S)[nH]c32)cc1 | 9.57%
Cc1cc(NS(=O)(=O)c2cn(C)nc2C)no1 | 23.6%
O=C(O)CCCNc1ccc(S(=O)(=O)Nc2ccccc2C(=O)O)cc1C(=O)O | 4.01%
O=c1[nH]c(=O)n(CC2CCCO2)c(O)c1/C=C1\C=Nc2ccccc21 (centres unmarked) [26662360] | -1.51%
COc1cc(C(C(=O)NC2CCCCC2)N(CCN2CCOCC2)C(=O)C2COc3ccccc3O2)cc(OC)c1OC (centres unmarked) | 37.9%
Cn1c(N/N=C/c2ccccc2)nc2sc3c(c2c1=O)CCC3 | 2.04%
O=c1c(-c2nnc(SCc3ccc(Cl)c(Cl)c3)o2)cccn1Cc1ccccc1 | 1.6%
O=c1cc([O-])nc(SCc2ccccc2)n1-c1ccccc1.[K+] | 11.4%
CC(=O)Nc1ccc(S(=O)(=O)N2CCC(Oc3ccc(-n4cnnn4)cc3)CC2)cc1 | -19.4%
Cc1ccc(OCCC(=O)Nc2ccc3c(c2)OCO3)cc1 | 0.269%
CCCSc1nc(C)cc(C)c1S(=O)(=O)c1ccccc1C | 13.6%
Nc1ccc2c(c1)C(=O)N(CC1CCCO1)C2=O (centres unmarked) | -0.477%
COc1ccc(C)cc1NC(=O)CN1C(=O)C(=O)N(C2CCCC2)C1=O | 9.44%
COc1ccccc1NC1=C(C)C(=O)CC1 | 15.9%
CCN(CC)S(=O)(=O)c1ccc(O)c(C(=O)OCC(=O)Nc2cc(C)c(C)cc2[N+](=O)[O-])c1 | -4.8%
CC(C)C[C@@H](C(=O)N[C@@H](C(=O)O)c1ccccc1)N1C(=O)N2CCc3c([nH]c4ccccc34)[C@@]2(C)C1=O | -6.67%
COC(=O)c1ccc(Oc2nc(NC(C)C)nc(SC)n2)cc1 | 0.243%
O=C(O)c1nn(-c2ccc(Cl)cc2)ccc1=O | 4.43%
CCOC(=O)C[C@H]1c2cc(F)ccc2S(=O)(=O)N1C1CCCCC1 | -3.26%
Cn1c(CNC(=O)c2ccccc2F)nnc1SCC(=O)Nc1nnc(C2CC2)s1 | 6.25%

SMILES | hERG current change (%, negative = inhibition) at 10uM
CCN1CCN(CCNC(=O)CCc2c(C)c3c(C)nn(-c4ccccc4)c3n(C)c2=O)CC1 | -31.2%
CCCCCCOc1ccc(N2C(=O)CC(N3CCC(C(=O)OCC)CC3)C2=O)cc1 (centres unmarked) | 6.75%
Cc1ccc(NC(=O)c2ccc(NS(=O)(=O)c3cccc4cccnc34)cc2)cc1 | 0.33%
COc1ccccc1C(=O)N1CCN(c2ccc(N3CCOCC3)nn2)CC1 | 7.02%
CCC(CC)NC(=O)COC(=O)c1cccc(C)c1O | 2.27%
CC(C)c1ccc(NC(=O)CCCN2C(=S)NC(C)(C)CC2C)cc1 (centres unmarked) | -8.19%
CN(C)C(CNC(=O)CCc1nc2ccccc2s1)c1ccccc1 (centres unmarked) | 0.219%
Cc1ccc(S(=O)(=O)N2CC(O)CC2C(=O)NCc2ccc3c(c2)OCO3)cc1 (centres unmarked) | 2.29%
CN(c1ccccc1)S(=O)(=O)c1ccc(Cl)c(C(=O)NC2=NCCS2)c1 | 9.14%
Cc1ccccc1NC(=O)Cc1nc(CSc2nnc(-c3ccc4c(c3)OCO4)o2)cs1 | 2.41%
CCS(=O)(=O)N1CCC(C(=O)NCc2cccs2)CC1 | 6.06%
Cc1cc2c(c(=O)n1Cc1ccccn1)C(C(C)C)C(C#N)=C(N)O2 (centres unmarked) | -0.366%
O=[N+]([O-])NC1=NCN(Cc2ccco2)CN1Cc1ccco1 | 5.47%
O=C(O)CCC(=O)N1CCc2cc(S(=O)(=O)NC3CCCC3)ccc21 | 8.88%
c1ccc2c(c1)OCCc1c-2[nH]c2ccccc12 | 7.5%
O=C(Nc1cccc(S(=O)(=O)N2CCOCC2)c1)c1ccccc1[N+](=O)[O-] | 0.195%
O=C(Nc1ncc2c(n1)CC(c1ccco1)CC2=O)c1ccccc1 (centres unmarked) | -7.67%
O=C(O)c1cc(Cl)c(Cl)cc1C(=O)N(Cc1ccccc1)Cc1ccccc1 | 13.7%
CCc1ccc2[nH]c(=O)c(CN(Cc3ccc(F)cc3)C(c3nnnn3CCN3CCOCC3)C(C)C)cc2c1 (centres unmarked) | -18.4%
COc1ccc(-n2nc(C)cc2Nc2ccccc2C(=O)O)cc1 | 13.6%
CCCOc1ccccc1C(=O)N(Cc1ccco1)C1CCS(=O)(=O)C1 (centres unmarked) | -0.904%
CC(=O)Nc1ccccc1OC(C)C(=O)NC(C)c1ccc(F)cc1 (centres unmarked) | 3.19%

SMILES | hERG current change (%, negative = inhibition) at 10uM
O=C(N/C(=C\c1ccco1)C(=O)N1CCOCC1)c1ccc([N+](=O)[O-])cc1 | -70.8%
Cl.c1ccc2c(c1)c1c3n2CCNC3CCC1 (centres unmarked) | -6.36%
C=CCn1c(SCC(=O)N2CCc3ccccc3C2)nnc1-c1ccncc1 | -15.6%
COc1ccc(CC(=O)OC(C)CN2CCCC2)cc1.Cl (centres unmarked) | 6.46%
Cc1cc(O)c(-c2cc(C(=O)NCc3ccc4c(c3)OCO4)[nH]n2)cc1C | -1.08%
C=CCOn1c(C)c(C(C)=O)c2c3no[n+]([O-])c3ccc21 | -14.5%
Nc1ccc(S(=O)(=O)N2CC3CC(C2)c2cccc(=O)n2C3)cc1 (centres unmarked) | 1.73%
C=CCn1c(O)c(C(C)=NCCCO)c(=O)[nH]c1=O | 3.31%
CCC(C(=O)NC(C)(C)C)N(C(=O)Cn1nnc(-c2ccccc2F)n1)c1cccc2c1CCCC2 (centres unmarked) | -2.91%
COc1ccc(OC)c(NC(=O)CN2C(=O)c3ccccc3S2(=O)=O)c1 | 2.94%
Br.Cc1cc(C)nc(SCc2csc(-c3ccccc3)n2)n1 | -4.42%
CCC(CC)C(=O)Nc1c2c(nn1-c1ccc(C)cc1)CS(=O)(=O)C2 | 5.3%
CC(C)C[C@@H](CSc1ccccc1)N1CCN(CC(C)C)CCC1=O | -75%
CCOC(=O)N1CCC(N2CCCC(C(=O)c3cccc(OC)c3)C2)CC1 (centres unmarked) | -64.8%
Cc1nc(SCC(=O)Nc2ccc(F)cc2)c2oc3ccccc3c2n1 | 13.5%
Cc1ccc(C)c(NC(=S)NNC(=O)c2cc3c(s2)CCC(C)C3)c1 (centres unmarked) | 16.6%
CCC1CCCCN1CCCNC(=O)Cn1ncc2c([nH]c3ccc(C)cc32)c1=O (centres unmarked) | -6.66%
CC(C)(CNC(=O)c1ccc(S(=O)(=O)Nc2ccccc2F)cc1)N1CCOCC1 | 1.67%
CCCCn1c(N)c(N(CCOC)C(=O)c2ccc3c(c2)C(=O)N(c2cc(C)ccc2C)C3=O)c(=O)[nH]c1=O | -9.32%
COc1ccccc1NC(=O)C(C)OC(=O)CCNS(=O)(=O)c1ccc(C)c(C)c1 (centres unmarked) | -18.7%
Cc1ccc(/C=C(\NC(=O)c2ccccc2)C(=O)N2CCCCC2)cc1 | -12%
Cc1cc2oc(=O)cc(CN3CCOCC3)c2cc1C | -5.87%

SMILES | hERG current change (%, negative = inhibition) at 10uM
CCN(CC)S(=O)(=O)c1ccc(C(=O)Nn2cnnc2)cc1 | 14.4%
O=C1CC(c2ccc(O)c(O)c2)Oc2cc(O)cc(O)c21 (centres unmarked) | 3.64%
C/C(=N\NC(=O)c1nnn(-c2nonc2N)c1-c1ccc2c(c1)OCO2)c1ccc(F)cc1 | 23%
CCN(CC)c1ccc(NC(=O)CN2C(=O)CSc3ncccc32)c(C)c1 | -5.51%
Cc1ccc(Nc2nc(-c3sc(C)nc3C)cs2)cc1 | 14%
O=C(Cc1c(F)cccc1Cl)N1CCCC1 | 16.2%
O=C(c1ccccc1)c1ccc2nc[nH]c2c1 | 0.168%
O=C(Nc1ccc(N2CCN(C(=O)c3ccc(Cl)cc3)CC2)cc1)c1cc2ccccc2o1 | -0.396%
CC(=O)Nc1ccc(-c2ccc3nnc(C)n3n2)cc1 | 6.66%
O=C(NC1CCCCC1)[C@H](CSCc1ccccc1)N1Cc2ccccc2C1=O | -44.6%
COCCNC(=O)CN(c1ccccc1OC)S(C)(=O)=O | 6.15%
CCCCCCn1c(O)c(C=NC2CCCCC2N)c(=O)[nH]c1=O (centres unmarked) | 1.62%
c1ccc2c(c1)ncn2-c1ccc(-c2ccnc(-c3ccncc3)n2)cc1 | -17.5%
S=c1[nH]nc(-c2ccc3ccccc3n2)n1-c1cc(Cl)cc(Cl)c1 | 8.25%
CCOC(=O)c1c(NC(=O)CN2CCCc3ccccc32)sc(C)c1C | 9.19%
O=C(Cc1ccc(S(=O)(=O)N2CCOCC2)s1)Nc1nc2c(s1)CCCC2 | 1.37%
COc1ccc(-c2nnc(-c3ccccc3O)o2)cc1 | 17%
CCC1=NN(C(=O)Cc2ccccc2)C(O)(c2ccncc2)C1 (centres unmarked) | 28.9%
NS(=O)(=O)c1ccc(NC(=O)c2ccc(CNS(=O)(=O)c3cc(C(F)(F)F)ccc3Cl)cc2)cc1 | 14.1%
O=C(NC1CCCCC1)C1Cc2ccccc2CN1S(=O)(=O)c1ccc(F)cc1 (centres unmarked) | -21%

From PMC4336329 (PLoS ONE, 2015)
